Among all 280,000 compounds or so, about 1,100 (0.39%) were called active. This list was built around the results that the source calls inconclusive (neither active nor inactive); the mix of calls is not that of the screen. Calls follow the shape of the dose curve; as a rule, active = well fitted inhibition curve with a large enough effect; inconclusive = small, poorly fitted or top-dose-only effect, or effect the other way; inactive = flat fitted curve, though single readings scatter. Potencies of inconclusive entries are left out as doubtful fits.
The compounds below were run against Microtubule-associated protein tau (Homo sapiens) (UniProt P10636) (assay: qHTS for Inhibitors of Tau Fibril Formation, Fluorescence Polarization). Settings: K18 P301L tau heparin fibrillization, Alexa594 FP, 6 h; series mostly up to 57.7 µM.
UniProt P10636, sequence (P10636 whole entry, looked up): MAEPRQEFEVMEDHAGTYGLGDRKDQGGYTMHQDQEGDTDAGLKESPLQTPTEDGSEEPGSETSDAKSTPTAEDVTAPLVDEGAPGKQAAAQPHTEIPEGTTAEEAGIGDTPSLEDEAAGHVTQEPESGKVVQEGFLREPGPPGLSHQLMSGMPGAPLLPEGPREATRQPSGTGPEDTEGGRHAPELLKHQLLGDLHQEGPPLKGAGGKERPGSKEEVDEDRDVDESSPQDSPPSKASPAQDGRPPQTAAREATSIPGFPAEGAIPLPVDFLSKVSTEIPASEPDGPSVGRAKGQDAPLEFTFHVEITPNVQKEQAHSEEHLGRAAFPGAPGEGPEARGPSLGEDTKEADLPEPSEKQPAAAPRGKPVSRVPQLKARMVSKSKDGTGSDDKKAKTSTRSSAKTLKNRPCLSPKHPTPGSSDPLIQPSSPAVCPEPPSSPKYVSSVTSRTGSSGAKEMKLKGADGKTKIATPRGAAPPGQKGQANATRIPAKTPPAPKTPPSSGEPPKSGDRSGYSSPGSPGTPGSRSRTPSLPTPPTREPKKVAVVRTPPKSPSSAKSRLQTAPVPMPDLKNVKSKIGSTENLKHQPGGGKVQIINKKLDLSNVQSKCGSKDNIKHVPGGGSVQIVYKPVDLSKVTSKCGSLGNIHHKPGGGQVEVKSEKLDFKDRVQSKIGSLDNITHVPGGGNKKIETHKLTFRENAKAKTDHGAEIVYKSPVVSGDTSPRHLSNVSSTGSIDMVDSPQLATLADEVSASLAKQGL
Text: NIH Molecular Libraries Probe Production Network [MLPCN]
NIH Chemical Genomics Center [NCGC]
Assay Provider: Carlo Ballatore, University of Pennsylvania
The microtubule-associated protein tau is an abundant protein in the axons of neurons that stabilizes microtubules. With its ability to modulate microtubule dynamics, tau contributes directly or indirectly, to key structural and regulatory cellular functions. Particularly important is the influence tau exerts on axonal transport, which allows signaling molecules, trophic factors and other essential cellular constituents to travel along the axons. Under pathological conditions, tau becomes sequestered into insoluble aggregates called neurofibrillary tangles. This phenomenon is believed to have pathological consequences by promoting axonal transport deficits that ultimately lead to synaptic dysfunction and neuronal loss. To identify inhibitors of tau aggregation, a heparin-induced tau fibril formation assay was used that employed a recombinantly expressed fragment of tau, K18 (Q242-E372), bearing a P301L mutation (Gustke et al. 1994; Hong et al. 1998).
Gustke, N., B. Trinczek, et al. (1994). "Domains of tau protein and interactions with microtubules." Biochemistry 33(32): 9511-22.
Hong, M., V. Zhukareva, et al. (1998).
Li, W. and V. M. Lee (2006). "Characterization of two VQIXXK motifs for tau fibrillization in vitro." Biochemistry 45(51): 15692-701.
von Bergen, M., S. Barghorn, et al. (2001). "Mutations of tau protein in frontotemporal dementia promote aggregation of paired helical filaments by enhancing local beta-structure." J Biol Chem 276(51): 48165-74.
NCGC Assay Protocol Summary:
For screening, 2 uL/well human K18 P301L (15 uM unlabeled and 0.24 uM Alexa 594-labeled tau final concentrations) in reagent buffer (100 mM sodium acetate pH 7) was dispensed into black solid 1536-well plates (Grenier) using a solenoid-based dispenser. Following transfer of 23 nL compound or DMSO vehicle by a pin tool, 2 uL/well heparin (20 uM final concentration) in reagent buffer was added and the plate centrifuged 15 s at 1000 RPM. Plates were incubated 6 hr at 37 C and then 1 uL/well ThT (30 uM final concentration) was added. After a 1 hr ambient incubation, the plates were read by an Envision (Perkin Elmer) to monitor Alexa 594 FP (555 nm excitation and 632 nm emission).
Keywords: NIH Roadmap, MLPCN, MLI, MLSMR, NCGC, qHTS, tau, tauopathies, Alzheimer's disease, fibril, neurodegeneration, aggregation
Also: nearly all actives have a fitted effect of over 55% in size.
Potency is read from the fitted curve at half-maximal effect; tags tell the direction and shape of the fitted curve.

Structure (SMILES) | Potency
COc1ccc2c(c1)CC(C(=O)Nc1cc(Cl)ccc1C)CO2 (stereo unspecified) | inactive
Cc1cccc(NC(=O)C2CCC(CNS(=O)(=O)c3ccc(Br)s3)CC2)c1 (stereo unspecified) | inconclusive [inhibitor, partial curve]
COc1ccc(C2C(C#N)=C(N)OC(C(C)(C)C)=C2C#N)cc1OC (stereo unspecified) | inactive
Cc1cccc(N(CC(=O)Nc2c(C)n(C)n(-c3ccccc3)c2=O)S(C)(=O)=O)c1C | inactive
CSC1=NCCN1C(=O)c1ccc2c(c1)OCO2 | inactive
Cc1nnc(N/N=C/c2ccc(O)c([N+](=O)[O-])c2)[nH]c1=O | inactive
Cc1cc(C)cc(Nc2nc(-c3ccc(S(=O)(=O)N4CCCC4)cc3)cs2)c1 | inconclusive [activator, full curve, poor fit]
Cn1c(N)c(C(=O)COC(=O)C2(c3ccc(F)cc3)CCCC2)c(=O)n(C)c1=O | inconclusive [inhibitor, single point]
COc1cc(NC(=O)CSc2nc3ccccc3nc2Cc2ccc(Cl)cc2)cc(OC)c1 | inconclusive [inhibitor, partial curve, poor fit]
CCOC(=O)c1cccc(NC(=O)c2cc3c(-c4cccc(OC)c4)nn(C)c3s2)c1 | inconclusive [inhibitor, partial curve]
COc1cc(NC(=O)NC(C)(C(F)(F)F)C(F)(F)F)cc(OC)c1OC | inactive
COc1ccc(NCc2cc3cc4c(cc3n(CC(=O)Nc3cc(C)cc(C)c3)c2=O)OCO4)cc1 | inconclusive [activator, single point]
Cn1c2ccccc2c2nnc(NN)nc21 | inconclusive [inhibitor, single point]
Cc1ccc(OCC(=O)Nc2ccc3nc(SCC(=O)N4CCOCC4)sc3c2)cc1 | inactive
NC(=O)c1nc(Nc2ccccc2)sc1NC(=O)c1ccccc1Br | inconclusive [activator, full curve, poor fit]
O=C1/C(=C/c2ccncc2)SC(=S)N1C1CCS(=O)(=O)C1 (stereo unspecified) | inconclusive [inhibitor, partial curve]
COc1cc(/C=C(\C#N)c2ccccn2)ccc1OCc1ccc(Cl)cc1 | inconclusive [inhibitor, partial curve]
CC(C)=CCC/C(C)=C\COc1c2ccoc2cc2oc(=O)ccc12 | inconclusive [inhibitor, partial curve, poor fit]
COc1ccc2nc(NC(=O)c3nc(SC(C)C)ncc3Cl)sc2c1 | inactive
COc1ccc(/C=N/NC(=O)c2ccc(-c3ccccc3)cc2)cc1O | inactive
COc1ccc(OC)c(-c2csc(NC(=O)C3c4ccccc4Oc4ccccc43)n2)c1 | inconclusive [inhibitor, partial curve]
O=C(NC1CCCC1)c1cc(Nc2cccc(C(F)(F)F)c2)nc2ccccc12 | inconclusive [inhibitor, partial curve]

Structure (SMILES) | Potency
COc1ccc(NC(=O)Nc2ccc(Br)cn2)cc1OC | inconclusive [activator, single point]
Cc1ccc(/C=N/NC(=O)c2ccccc2OCc2ccc(F)cc2)o1 | inconclusive [inhibitor, single point]
O=C(COc1cccc(-n2cnnn2)c1)N1CCOCC1 | inconclusive [inhibitor, single point]
S=C(NCCc1ccccn1)Nc1ccc(Cl)c(Cl)c1 | inconclusive [inhibitor, single point]
O=C(Cc1cccc(C(F)(F)F)c1)Nc1ccccc1 | inconclusive [inhibitor, partial curve, poor fit]
CC(C)CCNC(=O)c1ccc2c(SCC(=O)O)c3c(nc2c1)CCC3 | inactive
CCOC(=O)c1ccc(N/C=C/C(=O)C(C)(C)C)cc1 | inactive
Clc1ccc(C(c2ccccc2)c2c[nH]c3ccccc23)s1 (stereo unspecified) | inactive
COc1ccccc1CNC(=O)Cn1ncn2c(cc3sccc32)c1=O | inconclusive [inhibitor, single point]
O=C(CSc1nnc(SCc2ccccc2)s1)N/N=C/c1c(Cl)cccc1Cl | inconclusive [inhibitor, partial curve, poor fit]
CSc1nc(Cl)cc(Nc2ccc(O)cc2)n1 | inactive
O=C(O)CSc1c2c(nc3cc(C(=O)N4CCOCC4)ccc13)CCCC2 | inactive
O=[N+]([O-])c1cc2oc3c(c2c(C=NCc2ccccc2)c1O)CCCC3 | inconclusive [inhibitor, single point]
Cc1c(/C=N/Nc2ccc(F)cc2)c(O)n(C)c(=O)c1C#N | inconclusive [inhibitor, partial curve]
CC(C)(C)OC(=O)N1Cc2ccccc2C[C@H]1C(=O)O | inactive
CN(c1ccc(OCC(=O)Nc2nc(-c3ccccc3)cs2)cc1)S(=O)(=O)c1ccc(F)cc1 | inconclusive [inhibitor, partial curve]
CCOC(=O)C(c1ccccc1)C(Nc1ccc(F)cc1)c1ccccn1 (stereo unspecified) | inactive
Cc1ccccc1NC(=O)c1sc2nc3n(c(=O)c2c1C)CCC3 | inconclusive [activator, full curve, poor fit]
Cc1ccc(OCC(=O)OC2=C(C(=O)c3ccccc3)N(C)S(=O)(=O)c3ccccc32)cc1 | inconclusive [activator, partial curve, poor fit]
Clc1ccc(-c2nc3c4cnn(-c5ccccc5Br)c4ncn3n2)c(Cl)c1 | inconclusive [inhibitor, single point]
CC(C)c1nn2c(=O)cc(COC(=O)c3cccc(NC(=O)c4cccs4)c3)nc2s1 | inconclusive [inhibitor, partial curve]
CCCOc1ccc(-c2nonc2NC(=O)c2cc(OC)c(OC)c(OC)c2)cc1OCCC | inconclusive [inhibitor, single point]

Structure (SMILES) | Potency
CCOC(=O)c1ccc(S(=O)(=O)Nc2nc3cc(S(=O)(=O)NC4=NCCCCC4)ccc3s2)cc1 | active: 15.8 µM
COc1ccc(Cc2nc(-c3ccc(NC(=O)c4cccnc4)cc3)no2)cc1 | inconclusive [inhibitor, full curve, poor fit]
NC(=NC(=O)c1ccc(OCC(F)(F)F)nc1)c1ccc(Cl)cc1 | inconclusive [inhibitor, single point]
O=[N+]([O-])c1cc(-c2ccc(/C=N/c3nc4ccccn4c3-c3ccco3)o2)ccc1Cl | inconclusive [inhibitor, single point]
Cc1cccc(NC(=O)COC(=O)c2cccc3c2C(=O)c2ccccc2C3=O)c1C | inconclusive [activator, partial curve]
O=C(CSc1nc(-c2ccccc2)c(-c2ccccc2)o1)Nc1nnc(-c2ccccc2)s1 | inconclusive [inhibitor, full curve, poor fit]
COc1ccc(CSc2nc3ccncc3n2CC(=O)Nc2ccc(C)c(F)c2)cc1 | inconclusive [inhibitor, partial curve]
Cc1ccccc1C(=O)Nc1ccc2nc(SCC(=O)N3CCc4ccccc43)sc2c1 | inconclusive [inhibitor, single point]
COc1ccc(CNC(=O)c2ccc3c(c2)N(Cc2ccc(C)cc2)CCS3)cc1 | inconclusive [activator, single point]
O=C(COC(=O)c1cc(=O)[nH]c2ccccc12)Nc1nc(-c2ccccc2)cs1 | inconclusive [inhibitor, partial curve]
COc1ccccc1N1C(C)=CC(=C(C#N)c2nc3ccccc3s2)C=C1C | inconclusive [activator, partial curve]
CC(=O)Nc1ccc(N2CCCC2)cc1 | inconclusive [inhibitor, single point]
COc1ccc(/C=N/NC(=O)c2nn(-c3ccccc3)c(=O)c3c(N)scc23)cc1 | inconclusive [inhibitor, single point]
CC[C@@H](C)[C@@H](CO[C@@H](Cc1ccccc1)C(=O)N[C@@H](CCS(C)(=O)=O)C(=O)OC(C)C)NC[C@@H](N)CS | inconclusive [inhibitor, partial curve]
COc1ccc2c(c1)-c1c(ssc1=S)C(C)(C)N2C(=O)CSC1=NCCS1 | inactive
Cc1ccc(-c2nn3c(C)nnc3s2)cc1NC(=O)c1ccc(Br)o1 | inactive
COc1ccc2c(CC(=O)OCC(=O)Nc3ccccc3[N+](=O)[O-])coc2c1 | inconclusive [activator, single point]
CCOC(=O)/C=C1\NC(=O)CS1 | inactive
Cc1ccc(NC(=O)Cn2c(=O)n(CCCCC(=O)NCc3ccccc3Cl)c(=O)c3ccccc32)cc1 | inconclusive [inhibitor, partial curve, poor fit]
COc1cc(C2c3c(-c4ccccc4O)n[nH]c3C(=O)N2Cc2ccco2)ccc1OCC(C)C (stereo unspecified) | inconclusive [inhibitor, single point]
COCc1cc(C)nc(N/N=C/c2ccc(-c3ccc(C(=O)O)c(Cl)c3)o2)c1C#N | inactive
CC(C)c1ccc2c(c1)C(c1ccc(N3CCOCC3)cc1)=NNC(c1cccs1)=N2 | inconclusive [activator, partial curve, poor fit]

From PubChem BioAssay AID1468 (National Center for Advancing Translational Sciences (NCATS), 2008)
